Test results published in the supplement of paper PMC10369915.
This is one part of the list. No stated cut-off is given here; in the data, active = 3.2 or more and inactive = the rest. Only a few entries rise above the background.

Legend:
Assay in all cases: enrichment score (SH2-bound / input frequency) (ratio); bacterial display of known human phosphotyrosine sites (pTyr-Var adds point mutants) read by sequencing; higher = stronger binding; tyrosines were phosphorylated by kinases first
Settings in all cases: peptide library: pTyr-Var
SHP2 C-SH2 domain E139D = molecular target: SHP2 C-SH2 domain E139D
[1] = molecular target: SHP2 C-SH2 domain wild-type
SHP2 N-SH2 domain L43F = molecular target: SHP2 N-SH2 domain L43F
SHP2 N-SH2 domain T42A = molecular target: SHP2 N-SH2 domain T42A
SHP2 N-SH2 domain T52S = molecular target: SHP2 N-SH2 domain T52S
[2] = molecular target: SHP2 N-SH2 domain wild-type
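Further: displayed peptides selected on beads carrying the immobilized SH2 domain, with library peptides lacking any tyrosine serving as negative controls.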

Row | Binder | enrichment score (SHP2 C-SH2 domain E139D) | enrichment score [1] | enrichment score (SHP2 N-SH2 domain L43F) | enrichment score (SHP2 N-SH2 domain T42A) | enrichment score (SHP2 N-SH2 domain T52S) | enrichment score [2]
1 | FSCLPYGRLAY [SLC52A2_Y305] | inactive: 0.788 | inactive: 0.841 | inactive: 0.589 | inactive: 0.563 | inactive: 0.591 | inactive: 0.72
2 | RLGNQYVNVMN [SLC3A1_Y461] | active: 4.01 | active: 4.91 | active: 4.03 | active: 6.58 | active: 4.93 | active: 3.67
3 | ILLAGCLVMVI [SLC28A3_Y113_Y113C] | inactive: 1.62 | inactive: 2.24 | inactive: 1.75 | inactive: 1.89 | inactive: 1.69 | inactive: 2.27
4 | MSSLPYMKVIF [SLC4A11_Y853_M856V] | inactive: 2.2 | inactive: 2.63 | active: 6.85 | active: 11.6 | active: 9.39 | inactive: 2.66
5 | ELQDDYEDTME [SLC4A1_Y8_M11T] | inactive: 0.595 | inactive: 0.594 | inactive: 0.528 | inactive: 0.543 | inactive: 0.579 | inactive: 0.733
6 | VVIVLYFSLWK [SLC6A2_Y249] | inactive: 0.638 | inactive: 0.643 | inactive: 0.591 | inactive: 0.512 | inactive: 0.794 | inactive: 0.698
7 | RGVAHYILQTF [SLC39A4_Y359_T357A] | active: 3.34 | inactive: 2.6 | inactive: 2.44 | inactive: 2.05 | inactive: 2.14 | inactive: 2.49
8 | FPPTHYIRRVP [SLC4A11_Y820_YF] | inactive: 0.275 | inactive: 0.278 | inactive: 0.267 | inactive: 0.378 | inactive: 0.291 | inactive: 0.417
9 | LRRQDYQEILD [SLC35G2_Y403_K400R] | inactive: 0.294 | inactive: 0.341 | inactive: 0.439 | inactive: 0.554 | inactive: 0.444 | inactive: 0.411
10 | HLGNQYVNVMN [SLC3A1_Y461_R456H] | active: 3.68 | active: 5.37 | active: 3.84 | active: 6.53 | active: 4.16 | active: 3.63
11 | TDKLFYIFTPG [SLC27A4_Y243_S247P_YF] | inactive: 0.766 | inactive: 0.881 | inactive: 0.698 | inactive: 0.732 | inactive: 0.948 | inactive: 0.774
12 | QKINKYLTVPA [SLC9A1_Y683_N682K] | inactive: 1.32 | inactive: 0.952 | inactive: 1.62 | inactive: 1.13 | inactive: 1.08 | inactive: 0.977
13 | PKEEPYKMQEK [SLC5A3_Y565_Q566K] | inactive: 0.757 | inactive: 0.462 | inactive: 0.516 | inactive: 0.702 | inactive: 0.449 | inactive: 1.84
14 | LHQSTYQCYDV [SLC7A14_Y693_R695C] | inactive: 0.908 | inactive: 1.35 | inactive: 0.728 | inactive: 0.811 | inactive: 1.1 | inactive: 1.15
15 | GVKLTYGDAQN [SLC28A1_Y404] | inactive: 0.728 | inactive: 0.732 | inactive: 0.753 | inactive: 0.711 | inactive: 0.798 | inactive: 0.853
16 | LHQSTYQCFDV [SLC7A14_Y693_R695C_YF] | inactive: 0.996 | inactive: 1 | inactive: 0.804 | inactive: 0.726 | inactive: 0.583 | inactive: 1.07
17 | KLFFIYTPGTT [SLC27A4_Y245_S247P_YF] | inactive: 0.541 | inactive: 0.64 | inactive: 0.533 | inactive: 0.429 | inactive: 0.525 | inactive: 0.698
18 | CLGNQYVNVMN [SLC3A1_Y461_R456C] | inactive: 2.29 | inactive: 2.64 | inactive: 2.12 | inactive: 2.99 | inactive: 2.36 | inactive: 2.34
19 | ATATDYHTTSH [SLC4A1_Y46] | inactive: 0.478 | inactive: 0.511 | inactive: 0.422 | inactive: 0.527 | inactive: 0.59 | inactive: 0.649

Row | Binder | enrichment score (SHP2 C-SH2 domain E139D) | enrichment score [1] | enrichment score (SHP2 N-SH2 domain L43F) | enrichment score (SHP2 N-SH2 domain T42A) | enrichment score (SHP2 N-SH2 domain T52S) | enrichment score [2]
20 | PLQNTYNYNVL [SLC4A1_Y553_K551N] | inactive: 0.865 | inactive: 1.13 | inactive: 0.67 | inactive: 0.72 | inactive: 0.894 | inactive: 0.788
21 | PLQNTYNFNVL [SLC4A1_Y553_K551N_YF] | inactive: 0.866 | inactive: 0.896 | inactive: 0.833 | inactive: 0.706 | inactive: 0.967 | inactive: 0.998
22 | KLFFIYTSGTT [SLC27A4_Y245_YF] | inactive: 0.711 | inactive: 0.91 | inactive: 0.835 | inactive: 0.598 | inactive: 0.793 | inactive: 0.799
23 | LLGFLYFFVCS [SLC34A2_Y109] | inactive: 2.94 | inactive: 2.7 | inactive: 3.04 | inactive: 2.34 | inactive: 2.59 | inactive: 2.9
24 | RLGNQHVNVMN [SLC3A1_Y461_Y461H] | inactive: 0.712 | inactive: 0.651 | inactive: 0.651 | inactive: 0.607 | inactive: 0.579 | inactive: 1.12
25 | FSCLPYRRLAF [SLC52A2_Y305_G306R_YF] | inactive: 0.266 | inactive: 0.203 | inactive: 0.343 | inactive: 0.33 | inactive: 0.285 | inactive: 0.242
26 | LHQSTYQRYDV [SLC7A14_Y693] | inactive: 0.653 | inactive: 0.803 | inactive: 0.645 | inactive: 0.718 | inactive: 0.627 | inactive: 0.574
27 | VDSTEYEVASQ [SLC7A7_Y7] | inactive: 0.56 | inactive: 0.549 | inactive: 0.533 | inactive: 0.469 | inactive: 0.424 | inactive: 0.767
28 | LRKQDYQEILD [SLC35G2_Y403] | inactive: 1.18 | inactive: 0.682 | inactive: 0.976 | inactive: 0.97 | active: 4.18 | inactive: 1.06
29 | YPPTHYIRRMP [SLC4A11_Y820_V824M] | inactive: 0.184 | inactive: 0.256 | inactive: 0.34 | inactive: 0.266 | inactive: 0.215 | inactive: 0.269
30 | ISSLPYMKMIF [SLC4A11_Y853_M848I] | active: 3.31 | active: 4.01 | active: 7.65 | active: 12.8 | active: 9.51 | inactive: 2.95
31 | PLQKTYNYNML [SLC4A1_Y553_V557M] | inactive: 0.895 | inactive: 0.605 | inactive: 0.846 | inactive: 1.56 | inactive: 0.727 | inactive: 0.565
32 | KNKKDYYDMYE [SLC26A3_Y526] | inactive: 0.786 | inactive: 0.713 | inactive: 0.588 | inactive: 0.502 | inactive: 0.896 | inactive: 0.853
33 | GVKLTYGDAQS [SLC28A1_Y404_N409S] | inactive: 0.676 | inactive: 0.65 | inactive: 0.746 | inactive: 0.595 | inactive: 0.603 | inactive: 0.69
34 | VIEQSYNETWL [SLC2A4_Y56] | inactive: 0.685 | inactive: 0.627 | inactive: 0.781 | inactive: 0.528 | inactive: 0.862 | inactive: 0.649
35 | ATATEYHTTSH [SLC4A1_Y46_D45E] | inactive: 0.497 | inactive: 0.628 | inactive: 0.553 | inactive: 0.431 | inactive: 0.622 | inactive: 0.67
36 | PLQKTYNHNVL [SLC4A1_Y553_Y555H] | inactive: 0.882 | inactive: 0.833 | inactive: 1.07 | inactive: 0.945 | inactive: 1.19 | inactive: 1.31
37 | PLQKTYNYNVL [SLC4A1_Y553] | inactive: 1.15 | inactive: 1.32 | inactive: 1.15 | inactive: 1.05 | inactive: 1.04 | inactive: 1.21
